Results: ChEMBL document CHEMBL1157539, “Thousands of chemical starting points for antimalarial lead identification” (Nature, 2010)
The full ranking holds about 13,000 compounds; the median of “IFI” is about 4, and the highest 2% start at about 17. Some of the results follow.

test: GSK_TCMDC: Inhibition Frequency Index (IFI). The number of non-kinase HTS assays where a compound showed > 50 % inhibition, expressed as a percentage of the number of such assays in which the compound was tested (-0 is zero); type: functional

Going from O=c1cc(NCCCNC2CCCc3c2ccc2ccccc32)[nH]c2ccccc12 (stereo unspecified) to COc1ccc(CCN2CC[C@H](CNc3nc(-c4ccccc4)nc4ccccc34)C2)cc1S(N)(=O)=O, the IFI falls from 2.96% to 1.55%.

Compared with CCCCCCCc1[nH]c2ccccc2c(=O)c1C, Cc1[nH]c2ccc(-c3ccc(N(C)C)cc3)cc2c(=O)c1Cl is lower in IFI: 10.1% for the first, 0.92% for the second.

Compared with COc1ccc(CNc2cc(C)nc3sc4c(c23)CCC2(C4)OCCO2)cc1, COc1ccc2nccc(N(C)CC3(O)CCC(NCc4cc5c(cn4)OCCO5)CC3)c2n1 (stereo unspecified) is lower in IFI: 0.73% for the first, 0.72% for the second.

Compared with Cn1nc(C(F)(F)F)c(-c2ccc(F)cc2)c1NC(=O)Nc1ccc(F)cc1, CN1CCN(CC(=O)Nc2ccc(-c3ccc(-c4nc5cc(C(F)(F)F)ccc5[nH]4)s3)cc2)CC1 is lower in IFI: 12.5% for the first, 7.96% for the second.

Compared with Cc1c[nH]c(CCNC(=O)c2cc(-c3ccc(Cl)cc3)cs2)n1, O=C(Nc1cccc(-c2ccc(-c3nc4ccccc4[nH]3)cc2)c1)c1csnn1 is higher in IFI: 1.37% for the first, 4.5% for the second.

Going from O=C(Nc1ccc(OC2CCN(Cc3ccc(F)cc3)C2)c(Cl)c1)c1ccco1 (stereo unspecified) to O=C(Nc1ccc(OC2CCN(Cc3ccc(F)cc3)CC2)c(Cl)c1)c1ccccc1, the IFI rises from 1.64% to 6.78%.

First: N#Cc1ccc(CN2CCC(Oc3ccc(NC(=O)c4ccccc4)cc3Cl)CC2)cc1
Second: O=C(Nc1ccc(OC2CCN(Cc3ccsc3)CC2)c(Cl)c1)c1ccc(F)cc1
The IFI of the first is lower: 7.81% for the first, 15.2% for the second.

Compared with Nc1ncc(-c2ccsc2)c2ccc(-c3ccc4cn[nH]c4c3)cc12, COc1cccc(-c2cc(-c3ccc(NC(=O)c4ccccc4)cc3)c3c(N)ncnc3n2)c1 is higher in IFI: 1.5% for the first, 4.17% for the second.

First: O=C(C=Cc1ccc(Cl)c(Cl)c1)NCCCCCN1CCCC(CCCNC(=O)/C=C/c2ccccc2)C1 (stereo unspecified)
Second: N=C(N)c1ccc(C=CC(=O)NCC(O)CNC(=O)C=Cc2ccc(C(=N)N)cc2)cc1 (stereo unspecified)
The IFI of the first is higher: 7.41% for the first, 2.94% for the second.

First: COc1ccc(NC(=O)[C@H](Cc2ccccc2)Nc2cc(C)nc(NCCc3ccccn3)n2)cc1
Second: NC(=O)c1cccc(Nc2nccc(Nc3ccc(Oc4cccc5ccccc45)cc3)n2)c1
The IFI of the first is higher: 9.09% for the first, 5.76% for the second.

First: Nc1nc(N)c2c(ccc3c2ccn3CCCCO)n1
Second: Nc1nc(N)c2c(ccc3c2ccn3CCCC(F)(F)F)n1
The IFI of the first is lower: 1.37% for the first, 5.56% for the second.

Going from CCCc1cc(Cc2cnc(N)nc2N)c2cccnc2c1OC to COc1cccc(OC)c1OCCCOc1c(C)nc(N)nc1N, the IFI rises from 0.81% to 1.45%.

Compared with CC1(C)N=C(N)N=C(N)N1OCCc1ccc2ccccc2c1, CN(C)c1ccc(C=Cc2ccc3ccccc3n2)c(Cl)c1 is higher in IFI: 4.26% for the first, 12.3% for the second.

First: O=[N+]([O-])c1ccc2c(c1)c1ccccc1n2Cc1ccccc1O
Second: O=[N+]([O-])c1ccc(N/C(=N\c2ccccc2Br)NCCOc2ccccc2)c(O)c1
The IFI of the first is higher: 5.98% for the first, 4.86% for the second.

Going from COc1ccc2c(OC)ccc(CNCCCCCCNCc3ccc(OC)c4ccc(OC)cc34)c2c1 to Clc1ccc(CCNCCCCCCNCCc2ccc3c(c2)OCO3)cc1, the IFI falls from 14.2% to 3.62%.

Going from CCN(CC)CCOc1ccc(N(Cc2ccc(C(C)(C)C)cc2)C(=O)c2ccc(Cc3ccccc3)cc2)cc1OC to CC(C)(C)c1ccc(-c2csc(NC(=O)CC(c3ccccc3)c3ccccc3)n2)cc1, the IFI falls from 5.84% to 0%.

Going from O=C(Nc1ccc(C(F)(F)F)cc1)c1cc(Cl)cc2nc(C(F)(F)F)[nH]c12 to CCN(CCNC(=O)Nc1cc(C(F)(F)F)cc(C(F)(F)F)c1)c1cccc(C)c1, the IFI falls from 23.4% to 11.9%.

Going from CC(CN1CCN(C)CC1)C(=O)Nc1ccc(-c2cccc(-c3nc4cc(F)ccc4[nH]3)c2)cc1 (stereo unspecified) to N#CCCN1CCN(Cc2cccc(-c3ccc(-c4nc5cc(C(F)(F)F)ccc5[nH]4)cc3)c2)CC1, the IFI rises from 2.78% to 7.04%.

Compared with CCN1CCC(N(Cc2ccc(-c3ccc(C(F)(F)F)cc3)o2)C(=O)Cn2c(CCc3cccc(F)c3F)nc(=O)c3ccccc32)CC1, O=c1cnc2ccc(F)cc2n1CCN1CCC(NCc2cc(-c3ccccc3)cs2)CC1 is higher in IFI: 6.29% for the first, 10.3% for the second.

Compared with Cc1ccc(S(=O)(=O)c2nc(S(=O)(=O)c3ccccc3)sc2NCC2CCCO2)cc1 (stereo unspecified), Fc1ccc2[nH]c(-c3ccc(-c4ccc(CNCC5CCCO5)cc4)s3)nc2c1 (stereo unspecified) is higher in IFI: 4.65% for the first, 7.92% for the second.

Compared with Cn1c(NCc2cc(F)cc3c2OCOC3)nc2cc(Nc3ccnc(Nc4cccc(CS(C)(=O)=O)c4)n3)ccc21, Cc1ccc(Nc2nc3cc(N(C)c4ccnc(Nc5cccc(CS(C)(=O)=O)c5)n4)ccc3o2)cc1 is lower in IFI: 2.96% for the first, 2.27% for the second.

Going from COc1ccc(Cn2c(Nc3cccc(C(F)(F)F)c3)nc3cc(C(=O)NCCCN(C)C)ccc32)cc1Cl to CC(=O)Nc1cccc(C(=O)Nc2ccc(-c3cccc(-c4nc5cc(C(F)(F)F)ccc5[nH]4)c3)cc2)c1, the IFI rises from 2.14% to 4.42%.

Compared with c1ccc(Cn2nnnc2-c2cccc(Nc3ccnc4cc(-c5nccs5)ccc34)c2)cc1, Fc1ccc2[nH]c(-c3cccc(-c4cccc(CNCc5ccccc5)c4)c3)nc2c1 is lower in IFI: 7.25% for the first, 6.73% for the second.

Compared with CS(=O)(=O)Nc1ccc2[nH]cc(C3CCN(CC4CCC(NC(=O)/C=C/c5ccc(Cl)c(Cl)c5)CC4)CC3)c2n1 (stereo unspecified), O=C(C=Cc1cccc(F)c1)NC1CCC(CCN2CCc3ccc(-c4cnccn4)cc3CC2)CC1 (stereo unspecified) is higher in IFI: 2.99% for the first, 6.72% for the second.

Compared with CC(C)(Cc1ccc(Cl)cc1)NCCCCCCNCCc1ccc(O)c(O)c1, CC(C)(C)c1nn(-c2ccc(Cl)cc2)c2[nH]c(=O)c(CNCc3ccc4c(c3)OCO4)cc12 is lower in IFI: 8.22% for the first, 7.96% for the second.

Compared with CS(=O)(=O)c1ccc2[nH]c(-c3cc(-c4ccc(OCCN5CCOCC5)cc4)cnc3N)nc2c1, CC1CN(Cc2ccc(-c3ccc(-c4nc5cc(F)ccc5[nH]4)cc3)cc2)CC(C)O1 (stereo unspecified) is higher in IFI: -0% for the first, 12.5% for the second.

Compared with CC(Oc1c(C2CCN(CCCCNC(=O)c3ccc(-c4ccc(Cl)cc4)cc3)CC2)ccc2c1CCCC2)C(N)=O (stereo unspecified), CN1CCCN(Cc2cccc(-c3ccc(NC(=O)c4cccc(C#N)c4)cc3)c2)CC1 is lower in IFI: 12.3% for the first, 5.94% for the second.

Compared with FC(F)(F)c1ccc2[nH]c(-c3ccc(-c4cccc(CNCc5cnn(-c6ccccc6)n5)c4)s3)nc2c1, O=C(Nc1cccc(-c2ccc(-c3nc4ccccc4[nH]3)s2)c1)c1ccncc1 is lower in IFI: 15.9% for the first, 6.42% for the second.

Compared with c1nc(CCNc2nc(Nc3ccc4c(c3)OCO4)nc(NC3CCCC3)n2)c[nH]1, CCOc1ncccc1CN1CCC(N2CCc3cc(NC(=O)c4cc(C)on4)ccc32)C1 (stereo unspecified) is lower in IFI: 0.75% for the first, -0% for the second.

Going from COc1ccc(/N=[N+](\[O-])c2ccccc2/[N+]([O-])=N/c2ccc(OC)cc2)cc1 to Cc1nc(C)c(-c2ccc(C(=O)c3ccccc3)cc2)c(O)c1Br, the IFI rises from 0.7% to 0.75%.

Compared with c1ccc(-c2cc(NCCCCNc3cc(-c4ccccc4)nc4ccccc34)c3ccccc3n2)cc1, CC(=O)Nc1cccc(Nc2c3ccccc3nc3ccccc23)c1 is higher in IFI: 3.73% for the first, 7.43% for the second.

Compared with Cc1nn(CC(C)C)c2sc(C(=O)N3CCN(S(=O)(=O)c4ccc(C#N)cc4)CC3)cc12, COC(=O)c1cccc(OCCNC2CCN(C[C@H](O)c3ccnc4ccc(OC)cc34)CC2)c1 is higher in IFI: -0% for the first, 2.92% for the second.

First: CCNc1nc(OCC(F)(F)F)nc(N(c2ccccc2)c2ccccc2)n1
Second: O=C(CN(c1cccc(C(F)(F)F)c1)S(=O)(=O)c1ccc(Cl)cc1)NCCC(c1ccccc1)c1ccccc1
The IFI of the first is lower: 2.21% for the first, 4% for the second.

Going from Oc1cc(Nc2ccnc3cc(I)ccc23)ccc1F to O=C(Nc1nc(-c2cc(F)ccc2F)cs1)c1cncc(Br)c1, the IFI falls from 1.45% to -0%.

First: CCNc1cc(C(=O)N[C@@H](Cc2ccoc2)[C@H](O)CNC(C)CCCC(C)C)cc(N2CCCCS2(=O)=O)c1 (stereo partly specified)
Second: CCc1cn2c3c(cc(C(=O)N[C@@H](Cc4ccccc4)[C@H](O)CNC4CCOCC4)cc13)N(C(C)C)S(=O)(=O)CC2
The IFI of the first is higher: 3.47% for the first, 2.19% for the second.

Going from O=C(Nc1cccc(-c2nn3ncccc3c2-c2ccnc(Nc3cccnc3)n2)c1)c1c(F)cccc1F to CN(C)C(CNC(=O)c1cc(-c2ccncc2)c(-c2ccc(Cl)c(O)c2)o1)c1ccccc1 (stereo unspecified), the IFI falls from 3.6% to 0.76%.

First: COc1ccc(NC(=O)Nc2ccc(-c3ccccc3)cc2)cc1Cn1nc(Cl)c(N2CCCNCC2)cc1=O
Second: COc1ccc(NC(=O)/C=C/c2ccccc2Cl)cc1OCCN1CCC(Cc2cc3ccccc3[nH]2)CC1
The IFI of the first is higher: 11% for the first, 5.04% for the second.

Compared with Cc1ccc(C2CC(=O)CC(c3ccccn3)C2[N+](=O)[O-])cc1 (stereo unspecified), Oc1ccc(-c2ccccc2)cc1CNC1CCCCC1 is higher in IFI: -0% for the first, 0.74% for the second.

Going from CN(C)CCCOC(=O)c1cc2cc(-c3ccccc3)ccc2n1S(=O)(=O)Cc1ccccc1 to COc1ccc(Br)cc1C1C2C(=O)N(c3ccc(Br)cc3)C(=O)C2C2(C(=O)O)CC(OCc3ccccc3)CN12 (stereo unspecified), the IFI falls from 6.99% to -0%.

Going from CCN(C)CCCn1c(N(C)C)nc2cc(-n3cnc4cc(-c5ccc(Cl)cc5)sc4c3=O)ccc21 to CN1CCC(N2CCN(Cc3ccc(-c4ccc(-c5nc6ccccc6[nH]5)s4)cc3)CC2)CC1, the IFI falls from 8.66% to 5.63%.

Compared with Cc1cc(CNC(c2ccccc2)C2CCC2)cc(C)c1O (stereo unspecified), Oc1c(CN2CCC(Cc3ccccc3)CC2)cc(Cl)c2cccnc12 is higher in IFI: 0% for the first, 18.8% for the second.

O=C1CC(C(=O)O)CC(=O)N1 and Cc1ccc(S(C)(=O)=O)cc1/C=C/C(=O)O are the same in IFI: 0% for the first, -0% for the second.

COc1ccc(-c2cnc(N)nc2N)cc1Cl and COC(=O)c1cc(/C(C)=N/Nc2nc3ccccc3[nH]2)ccc1O are the same in IFI: 1.48% for the first, 1.48% for the second.

First: CN(Cc1ccc(NC(=O)CCC2CCN(C(=O)/C=C/c3ccc(Cl)c(Cl)c3)CC2)cc1)C1CCOCC1
Second: CC(Cc1ccc(CN2CCN(Cc3ccccc3)CC2)cc1)NCC(O)c1cccc(C(F)(F)F)c1 (stereo unspecified)
The IFI of the first is lower: 2.99% for the first, 9.15% for the second.

Compared with CC(C)C[C@@H](/C=N/N1CCOC1=O)NC(=O)[C@H](CC(C)C)NC(=O)c1ccc(OCCN2CCOCC2)cc1, CCCC(C)NC(=O)[C@H]1CNCCN1C(=O)CCCc1ccccc1 (stereo partly specified) is lower in IFI: 7.27% for the first, -0% for the second.

OCCN1CCN(C2Cc3ccc(F)cc3Sc3ccc(Cl)cc32)CC1 (stereo unspecified) showed an IFI of 2.31%.
